# Experimental data: PubChem BioAssay (NCI)
#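 All cell lines were grown in 96-well plates and treated with compound for 48 hours. Here, GI50 denotes the concentration required for 50% inhibition of growth. TGI denotes the concentration required for complete inhibition of growth.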
# Test system: NCI-H322M lung
# Assay: NCI-60 cell line screen, 48 h
compound,measurement,value
C#CCN(C)CCCOc1ccc(NCc2ccc(/C=C/C(=O)NO)cc2)cc1Cl,GI50,0.74 µM
same,TGI,7.38 µM
